# PubChem BioAssay (Tox21)
# Several values for one entry are separate records, joined by “and”; a condition that tells them apart may be missing. Identical values can stand only once. Inconclusive means that the source gave no clear call. Such entries were picked first, then a sample of the others. For some of these results: Potencies beside an inconclusive call are fits to weak or partial responses and may not hold up. Some compounds were tested as several samples or in several runs, with calls that do not always agree. Activity calls are given as the source filed them. Unless noted, the call rests on the fitted dose curve; in most records, active means well fitted curve in the direction sought with a large enough effect in the repeat runs; inconclusive means weak or mixed curves; inactive means no such curve, though single readings can be large; an effect the other way counts as inactive or inconclusive.
# Columns and labels:
# [1] = qHTS assay for small molecule agonists of the p53 signaling pathway (AID 651631; calls by dose curve; further: nearly all actives have a fitted effect of over 15% in size; on activation: on the % scale 0 is the no-effect control and ±100 the full control effect); details: HCT-116 p53RE-bla reporter, beta-lactamase FRET ratio, 16 h; activation: at 73.3 µM (top of the series) unless noted
# Outline: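 HCT-116 cells carrying a beta-lactamase reporter under p53 response elements were dosed with compound for 16 h at 37 °C. LiveBLAzer B/G FRET substrate was then added for 2 h at room temperature, and fluorescence intensity was read to detect pathway agonism.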
# [2] = qHTS assay for small molecules that induce genotoxicity in human embryonic kidney cells expressing luciferase-tagged ATAD5 - cell viability (AID 651634; calls by dose curve; further: nearly all actives have a fitted effect of over 25% in size; on activity, negative = cytotoxicity: on the % scale 0 is the no-effect control and ±100 the full control effect)
# Outline: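 Seeding of 2,000 HEK293T ATAD5-luciferase cells per well preceded pin-tool compound transfer. Plates sat 15.5 hr at 37C under 5% CO2, then fluorescence was read after 30 min with CellTiter-Fluor.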
# [3] = qHTS assay for small molecule disruptors of the mitochondrial membrane potential (AID 720635); details: HepG2 mitochondrial membrane potential, Mito-MPS dye ratio; ratio activity, negative = MMP loss: at 83.2 µM (top of the series) unless noted; on ratio activity, negative = MMP loss: on the % scale 0 is the no-effect control and ±100 the full control effect
# Outline: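 Mitochondrial membrane potential tracked with Mito-MPS dye, red aggregates (ex 540/em 590 nm) against green monomers (ex 490/em 535 nm). Compound treatment 1 hr at 37C, dye 30 min in HepG2.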
# [4] = qHTS assay to identify small molecule antagonists of the glucocorticoid receptor (GR) signaling pathway - cell viability counter screen (AID 720693); details: GR-bla HeLa viability, CellTiter-Glo luminescence, 18 h, with 5 nM dexamethasone present; viability change, negative = cytotoxic: at 58.5 µM (top of the series) unless noted; further: nearly all actives have a fitted effect of over 55% in size; on viability change, negative = cytotoxic: on the % scale 0 is the no-effect control and ±100 the full control effect
# [5] = qHTS assay for small molecules that induce genotoxicity in human embryonic kidney cells expressing luciferase-tagged ATAD5 (AID 651632); further: nearly all actives have a fitted effect of over 15% in size
# Outline: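 Reporter cells (HEK293T) express luciferase-tagged ATAD5, a protein that accumulates after DNA damage. Treat 16 hr at 37C/5% CO2, add Amplite, wait 30 min at RT, and read luminescence.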
# [6] = target: Glucocorticoid receptor (Homo sapiens) (UniProt P04150); assay: qHTS assay to identify small molecule antagonists of the glucocorticoid receptor (GR) signaling pathway (AID 720692; active means well fitted inhibition curve with a large enough effect in the signal ratio in the repeat runs, not every such curve was filed as active; inconclusive means weak or mixed curves, or effect the other way; inactive means no such curve, though single readings can be large or run the other way; the % refers to the signal ratio); details: GR-bla HeLa, beta-lactamase FRET ratio, dexamethasone-stimulated, 18 h; activity change, negative = inhibition: at 58.5 µM (top of the series) unless noted
# Chain of UniProt P04150 (P04150 whole entry, looked up): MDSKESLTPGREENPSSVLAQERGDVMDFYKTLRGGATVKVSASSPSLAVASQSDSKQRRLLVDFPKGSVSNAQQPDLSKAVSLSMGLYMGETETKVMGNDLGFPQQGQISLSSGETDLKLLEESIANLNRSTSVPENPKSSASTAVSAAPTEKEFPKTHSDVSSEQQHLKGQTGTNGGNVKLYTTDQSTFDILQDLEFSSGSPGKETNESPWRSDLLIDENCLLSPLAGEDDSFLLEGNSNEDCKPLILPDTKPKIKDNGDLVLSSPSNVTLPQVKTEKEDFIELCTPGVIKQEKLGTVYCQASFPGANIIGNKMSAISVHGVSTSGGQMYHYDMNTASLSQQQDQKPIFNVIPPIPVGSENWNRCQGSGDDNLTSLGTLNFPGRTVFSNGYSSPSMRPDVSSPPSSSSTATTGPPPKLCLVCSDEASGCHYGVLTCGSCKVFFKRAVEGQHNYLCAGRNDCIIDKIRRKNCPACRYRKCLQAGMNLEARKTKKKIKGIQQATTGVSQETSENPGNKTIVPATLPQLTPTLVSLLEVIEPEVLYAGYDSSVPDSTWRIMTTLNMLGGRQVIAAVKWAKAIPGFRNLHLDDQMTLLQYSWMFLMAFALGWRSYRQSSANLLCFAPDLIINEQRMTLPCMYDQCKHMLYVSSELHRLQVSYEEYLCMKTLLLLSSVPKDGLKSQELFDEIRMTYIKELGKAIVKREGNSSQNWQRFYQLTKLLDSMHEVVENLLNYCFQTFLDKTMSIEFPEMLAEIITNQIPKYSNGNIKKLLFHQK
# Outline: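 Dexamethasone (5 nM final) stimulated a stably integrated GRE-beta-lactamase reporter in HeLa cells during 18 h co-incubation with compounds; signal was quantified as fluorescence intensity of B/G FRET substrate after 2 h.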
# [7] = qHTS assay for identifying genotoxic compounds that show differential cytotoxicity against isogenic chicken DT40 cell lines with known DNA damage response pathways - Rev3 mutant cell line (AID 743014); details: chicken DT40 Rev3-/- viability, CellTiter-Glo, 40 h; activity, negative = cytotoxicity: at 68.4 µM (top of the series) unless noted; further: nearly all actives have a fitted effect of over 55% in size
# [8] = qHTS assay for small molecule agonists of the p53 signaling pathway - cell viability (AID 651633; calls by dose curve; further: nearly all actives have a fitted effect of over 30% in size)
# Outline: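 Viability counter-read: CellTiter-Glo luminescence (30 min, room temperature) in the same p53RE-bla plates. These plates had been exposed to compounds for 16 h at 37 C.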
# [9] = target: Glucocorticoid receptor (Homo sapiens) (UniProt P04150); assay: qHTS assay to identify small molecule agonists of the glucocorticoid receptor (GR) signaling pathway (AID 720691; active means well fitted activation curve with a large enough effect in the signal ratio in the repeat runs, not every such curve was filed as active; inconclusive means weak or mixed curves, or effect the other way; inactive means no such curve, though single readings can be large or run the other way; the % refers to the signal ratio); details: GR-bla HeLa, beta-lactamase reporter ratio, 18 h; activation: at 62.4 µM (top of the series) unless noted
# Outline: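 Reporter read-out: fluorescence intensity following 2 h room-temperature LiveBLAzer B/G FRET substrate loading. Prior step: GR-bla HeLa cells held 4 h, then treated 18 h at 37 C.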
# [10] = qHTS assay for identifying genotoxic compounds that show differential cytotoxicity against isogenic chicken DT40 cell lines with known DNA damage response pathways - wild type cell line (AID 743012); details: DT40 wild type chicken cells viability, CellTiter-Glo, 40 h; activity change, negative = cytotoxicity: at 68.4 µM (top of the series) unless noted; further: nearly all actives have a fitted effect of over 60% in size
# Outline: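 Using parental DT40 (300 cells/well), compounds delivered in DMSO incubate 40 h at 37 C/5% CO2. CellTiter-Glo reagent then stands 30 min at room temperature, and luminescence gives cell viability.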
# [11] = qHTS assay for small molecule disruptors of the mitochondrial membrane potential - cell viability (AID 720634; calls by dose curve; further: nearly all actives have a fitted effect of over 20% in size)
# Outline: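 Measuring cytotoxicity alongside mitochondrial potential, the screen quantified ATP by luminescence in HepG2 cells after 1 hr compound incubation and a 30 min room-temperature CellTiter-Glo step.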
# [12] = qHTS assay for identifying genotoxic compounds that show differential cytotoxicity against isogenic chicken DT40 cell lines with known DNA damage response pathways - Rad54/Ku70 mutant cell line (AID 743015); details: DT40 Rad54/Ku70 mutant viability, CellTiter-Glo, 40 h; activity change, negative = cytotoxicity: at 66.8 µM (top of the series) unless noted; further: nearly all actives have a fitted effect of over 60% in size
# Potency means the concentration at half of the fitted maximal effect; tags describe the fitted curve by direction and shape or compound fluorescence and quenching.
structure (smiles),measurement,setting,value
CCOc1cc(C=O)ccc1O,Potency,[1],"inconclusive: 29.8 µM [rising, single point]"
Cc1cc(Cl)ccc1N=CN(C)C,Potency,[1],"inconclusive: 15.4 µM [rising, single point]"
same,activation,[1],inconclusive: 1.06%
same,Potency,[2],inactive
same,Potency,[3],"inactive and inconclusive: 6.86 µM [activator, full curve]"
same,Potency,[4],inactive
COC(=O)Nc1nc2ccccc2[nH]1,Potency,[1],active: 7.7 µM and active: 13.7 µM
same,Potency,[5],"inconclusive: 34.4 µM [activator, partial curve, poor fit]"
same,Potency,[2],"inconclusive: 4.33 µM [falling, partial curve, poor fit]"
same,Potency,[3],"inconclusive: 864 nM [activator, full curve, poor fit]"
same,"ratio activity, negative = MMP loss",[3],inconclusive: 1.67%
same,"activity change, negative = inhibition",[6],inconclusive: -7.53%
same,Potency,[4],"inconclusive: 5.49 µM [rising, single point]"
same,Potency,[7],active: 6.11 µM and active: 6.86 µM
Nc1ccc(-c2ccc(N)c(Cl)c2)cc1Cl,Potency,[1],active: 9.74 µM and active: 12.8 µM and active: 21.7 µM
same,Potency,[5],"inconclusive: 6.14 µM [activator, full curve, poor fit] and inconclusive: 64 µM [activator]"
same,Potency,[8],"inconclusive: 61.1 µM [cytotoxic, single point]"
same,Potency,[3],active: 5.48 µM and active: 16.1 µM and active: 8.63 µM
same,Potency,[9],"inconclusive: 3.11 µM [inhibitor, full curve] and inconclusive: 1.82 µM [inhibitor, partial curve, poor fit] and inconclusive: 3.89 µM [inhibitor, partial curve]"
same,Potency,[6],active: 19.6 µM and active: 11.5 µM and active: 19.5 µM
same,Potency,[10],"inconclusive: 77.4 µM [cytotoxic, single point] and inconclusive: 64 µM [cytotoxic, single point]"
C[C@H]1C(=O)O[C@@H]2CCN3CC=C(COC(=O)[C@](C)(O)[C@]1(C)O)[C@H]23,Potency,[1],"inconclusive: 61.1 µM [activator, partial curve, poor fit]"
same,activation,[1],inconclusive: 3.82% [at 95.1 µM]
same,"activity change, negative = inhibition",[6],inconclusive: 0.293%
same,Potency,[10],"inconclusive: 27.3 µM [cytotoxic, partial curve]"
same,Potency,[7],"inconclusive: 68.9 µM [cytotoxic, single point]"
O=C=Nc1ccc(Cl)cc1,Potency,[1],"inconclusive: 9.69 µM [rising, full curve, poor fit]"
same,Potency,[5],"inconclusive: 30.6 µM [activator, partial curve, poor fit]"
same,Potency,[2],"inconclusive: 13.7 µM [falling, partial curve, poor fit]"
same,Potency,[11],active: 21.7 µM
same,Potency,[3],active: 172 nM
same,Potency,[12],active: 27.3 µM
COC(C)(C)C,Potency,[1],inactive
CC(C)Nc1ccc(Nc2ccccc2)cc1,Potency,[1],active: 26.6 µM and active: 68.3 µM and active: 30.6 µM
same,Potency,[5],"inconclusive: 48.4 µM [activator, partial curve, poor fit]"
same,Potency,[8],"inconclusive: 68.3 µM [cytotoxic, single point]"
same,Potency,[11],"inconclusive: 33.5 µM [cytotoxic] and inconclusive: 68.3 µM [cytotoxic, partial curve, poor fit] and inconclusive: 54.5 µM [cytotoxic, partial curve, poor fit]"
same,Potency,[3],active: 21.1 µM and active: 60.9 µM and active: 61.1 µM
same,Potency,[6],"inconclusive: 24.4 µM [cytotoxic, partial curve, poor fit] and inconclusive: 7.76 µM [cytotoxic, partial curve, poor fit]"
same,"activity change, negative = inhibition",[6],inconclusive: 9.16%
same,Potency,[4],"inconclusive: 61.4 µM [cytotoxic, single point] and inconclusive: 49 µM [cytotoxic, partial curve, poor fit]"
same,Potency,[7],active: 10.6 µM and active: 12.1 µM and active: 13.7 µM
S=C=NCc1ccccc1,Potency,[1],active: 69.3 µM
same,Potency,[5],"inconclusive: 69.3 µM [activator, single point]"
same,Potency,[2],"inconclusive: 55 µM [falling, partial curve, poor fit]"
same,Potency,[12],inactive
